Measurements as given in the supplement of paper PMC10338343.
± gives the standard deviation. Only a part is listed here, and it is no random draw.

Each sequence was assayed on MIWI (PIWIL1) piRISC loaded with L1MC piRNA (30 nt) (assay: pre-steady-state target cleavage rate (min^-1); MIWI and MILI are mouse PIWI proteins and EfPiwi is from a freshwater sponge; tags in brackets are library labels; higher = faster piRNA-guided slicing of the target). Conditions: guide: L1MC piRNA 5'p-UAACUAAAUACUAUGCAAGCUGUAGGUCCU; auxiliary factor: 500 nM mouse GTSF1.
How it was run: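 A transcribed, DNA-blocked target RNA library […] was incubated at 33 °C for 0–8 or 0–960 min with 1 nM active affinity-purified piRISC carrying one synthetic guide, in HEPES–potassium acetate buffer with or without 500 nM GTSF1 partner protein. Uncleaved targets were then sequenced and normalised to depth and to weakly complementary targets. Data from three trials were pooled, with k3 capped at 0.0001 min^-1, and a burst-and-steady-state fit yielded the pre-steady-state cleavage rate.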
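Note: 1 nM active piRISC with 0.1 nM target library at 33 °C single turnover.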

First: UCCUGGAACAGCUUGCAUAGUAUAAUGAAA
Second: AGGACCUACAGCUUGCAUAGUAUUAUGAAA
The “pre-steady-state target cleavage rate” value of the first is lower: 0.136 ± 0.033 for the first, 0.526 ± 0.098 for the second.

Going from UCCUGGAUGUCCUUGCUAAGUAUUUAGUAA to UCCUCCUACAGCUUGCAUAGUAUUUGUUA, the “pre-steady-state target cleavage rate” value rises from 0.00854 ± 0.0055 to 0.351 ± 0.036.

Going from UCCUGCUACAGCUUGCAUACGUAUUUAGUUA to UCCUGGAUGAGGUUGCAUAGUAAUUAGUUA, the “pre-steady-state target cleavage rate” value rises from 0.00451 ± 0.0041 to 0.0134 ± 0.0044.

UCCUGGUACAGCUAGCAUAGUAUUUUCAAA and UCGACCUACUCGUUGCAUAGUAUUUACAAA are within error of each other in “pre-steady-state target cleavage rate” value: 0.162 ± 0.03 for the first, 0.165 ± 0.025 for the second.

Compared with UCGACCUACAGCAUGCAUAGUAUUUAGAAA, UCCUGGAUCUCGUUGCAUAGUAUUUAGAAA is lower in “pre-steady-state target cleavage rate” value: 0.62 ± 0.066 for the first, 0.00784 ± 0.0049 for the second.

First: UCCUGGAUCAGCUUGCAUAGUAUAAAGUAA
Second: UCCUGGAUCAGCUUCGAUAGUAUUUAGUAA
The “pre-steady-state target cleavage rate” value of the first is higher: 0.239 ± 0.039 for the first, 0.0137 ± 0.0063 for the second.

AGGACCUACACGUUGCAUAGUAUUUUCAAA and UCCUCCUACAGCUUGCAUAGUAAAAAGUAA are within error of each other in “pre-steady-state target cleavage rate” value: 0.209 ± 0.025 for the first, 0.173 ± 0.038 for the second.

For UCCACCUAGUGCUUGCAUAGUAUUUUCAAA, the “pre-steady-state target cleavage rate” value was 0.0568 ± 0.012.
